Assay results published in patent publication US12616716B2, “Wound healing dressings and formulations and methods of use thereof” (Polaroid IP B.V., priority 2023, dated 2026).

Key:
Assay in all cases: MBC, spot plating after 24 h in MH broth
Parameters in all cases: key: —: no activity observed
Conditions in all cases: Table 18; —: no activity observed
[1] = system: Enterococcus faecalis EF51299
Source text: (§1) Results are presented as CFU per mL.

[2] = system: Klebsiella pneumoniae KL1
Source text: as §1

[3] = system: Pseudomonas aeruginosa 27853
Source text: as §1

[4] = system: Escherichia coli EC25922
Source text: as §1

[5] = system: Staphylococcus aureus ATCC 29213
Source text: as §1

[6] = system: Staphylococcus aureus MR1
Source text: as §1

[7] = system: Enterococcus faecalis EF19433
Source text: as §1

CCCCCCCCCCCCCCCCCC[N+](C)(C)CCOCCO.[Br-] [Compound 39637_105543]
—: MBC EF51299 [1] | MBC KL1 [2] | MBC PA27853 [3]

CCCCCCCCCCCC[N+](C)(C)CCOCCO.[Br-] [Compound 40597_109444]
—: MBC EF51299 [1] | MBC EC25922 [4] | MBC KL1 [2] | MBC SA29213 [5] | MBC PA27853 [3] | MBC MR1 [6] | MBC EF19433 [7]

CCCCCC[N+](C)(C)CCOCCO.[Br-] [Compound 40598_109448]
—: MBC EF51299 [1] | MBC EC25922 [4] | MBC KL1 [2] | MBC SA29213 [5] | MBC PA27853 [3] | MBC MR1 [6] | MBC EF19433 [7]

CCCCCCCCCCCCCCCCCC[N+](C)(C)CCOCCO.[Br-] [Compound 39637_109466]
—: MBC PA27853 [3]
